Laboratory results published in PubChem BioAssay (EPA / NIEHS).
Several values for one entry are separate records, joined by “and”; a condition that tells them apart may be missing. Equal values may be shown once. For some of these results: This list holds what a sample rich in hits left over. Results filed as inconclusive are left out. More than one record can exist for a structure, and the calls need not agree. This is a selection; strong and weak results do not stand in their true shares. Activity calls are given as the source filed them. How the source made its calls, unless noted: active means hit-call score of the fitted dose curve at least 0.9, where 1 is the maximum; inactive means score below 0.9.

Legend:
[1] = molecular target: Peroxisome proliferator-activated receptor gamma (Homo sapiens) (UniProt P37231); assay: ATG_PPARg_TRANS: Attagene TRANS-FACTORIAL HepG2 Assay for human Peroxisome Proliferator-activated Receptor-gamma (PPARg) (AID 2283007; active means hit-call score of the fitted dose curve at least 0.9, where 1 is the maximum)
Summary of the method: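 Twenty-four hours after chemical dosing of transiently transfected HepG2 cells, isolated RNA was converted to cDNA, reporter sequences amplified and 6-FAM-labelled, then HpaI-digested and analysed by capillary electrophoresis. Signal increase against DMSO was fitted.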

[2] = read-out: Interleukin-1 alpha (IL1a), IL1A (gene 3552); assay: BSK_BE3C_IL1a: BioMAP Diversity Plus: BE3C Assay for Interleukin-1 alpha (IL1a) Biomarker Activity (AID 2283016); details: actives raise or lower the signal; primary human bronchial epithelial cells
Summary of the method: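 Signal from IL-1a ELISA, taken 24 h after chemical dosing of human bronchial epithelial cells, is compared with DMSO as baseline using bidirectional curve fitting.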

[3] = BSK_BE3C_SRB: Viability Assessment in the BioMAP Diversity Plus: BE3C Assay (AID 2283028); details: primary human bronchial epithelial cells;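 further: fitted both ways so AC50 may mark signal gain or loss versus DMSO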
Summary of the method: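 Overt cytotoxicity was assessed as total protein in confluent human primary bronchial epithelial cultures 24 h after chemical addition, using 0.1% sulforhodamine B staining read at 560 nm.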

[4] = read-out: Vascular endothelial growth factor receptor 2 (Homo sapiens) (UniProt P35968); assay: BSK_4H_VEGFRII: BioMAP Diversity Plus: 4H Assay for Vascular endothelial growth factor receptor 2 (VEGFR2) Biomarker Activity (AID 2283031); details: actives raise or lower the signal; primary human endothelial cells (HUVEC)
Summary of the method: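 VEGFRII levels on human vascular endothelial primary cells were determined by ELISA at 24 hours post-dosing, with gain- or loss-of-signal fitted against DMSO controls.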

[5] = read-out: Human Leukocyte Antigen - DR isotype (HLADR), HLA-DRA (gene 3122); assay: BSK_BE3C_HLADR: BioMAP Diversity Plus: BE3C Assay for Human Leukocyte Antigen - DR isotype (HLADR) Biomarker Activity (AID 2283032); details: actives raise or lower the signal; primary human bronchial epithelial cells
Summary of the method: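 Chemicals are dosed onto BE3C bronchial epithelial cultures of human origin and left 24 h. HLA-DR is then measured by ELISA, and the endpoint is fitted in both directions using DMSO as the activity baseline.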

[6] = read-out: Interferon-gamma inducible Protein 10 (IP10), CXCL10 (gene 3627); assay: BSK_BE3C_IP10: BioMAP Diversity Plus: BE3C Assay for Interferon-gamma inducible Protein 10 (IP10) Biomarker Activity (AID 2283034); details: actives raise or lower the signal; primary human bronchial epithelial cells
Summary of the method: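 IP-10 quantified by ELISA serves as the endpoint. Cells: primary human bronchial epithelium, read 24 h after compound addition. Activity is derived by bidirectional fitting with DMSO as negative control.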

[7] = read-out: Plasminogen activator inhibitor-1 (PAI1), SERPINE1 (gene 5054); assay: BSK_BE3C_PAI1: BioMAP Diversity Plus: BE3C Assay for Plasminogen activator inhibitor-1 (PAI1) Biomarker Activity (AID 2283037); details: actives raise or lower the signal; primary human bronchial epithelial cells
Summary of the method: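 Values derive from bidirectional fitting against DMSO baseline of PAI-1 levels, measured by ELISA in human bronchial epithelial cells 24 h after compound addition.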

[8] = read-out: urokinase plasminogen activator (uPA), PLAU (gene 5328); assay: BSK_BE3C_uPA: BioMAP Diversity Plus: BE3C Assay for urokinase plasminogen activator (uPA) Biomarker Activity (AID 2283038); details: actives raise or lower the signal; primary human bronchial epithelial cells
Summary of the method: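 Measured by ELISA: uPA from human primary bronchial epithelial cells 24 h after chemical treatment. Values derive from bidirectional curve fitting with DMSO serving as negative control. Total protein by SRB staining in parallel wells flagged overt cytotoxicity.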

[9] = BSK_CASM3C_Proliferation: Cell Proliferation Assessment in the BioMAP Diversity Plus: CASM3C Assay (AID 2283047); details: primary human coronary artery smooth muscle cells;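 further: sulforhodamine B total protein stain as relative cell number at 560 nm; sub-confluent cells exposed 48 h before staining; fitted both ways against DMSO so gain or loss of cell number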
[10] = BSK_KF3CT_SRB: Viability Assessment in the BioMAP Diversity Plus: KF3CT Assay (AID 2283069); details: primary human keratinocytes with fibroblasts;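 further: fitted for both signal gain and loss against DMSO baseline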
Summary of the method: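 Overt cytotoxicity is assessed as total protein by sulforhodamine B staining in parallel human skin co-cultures at 24 h after dosing. DMSO serves as negative control and baseline.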

[11] = read-out: Interleukin-1 alpha (IL1a), IL1A (gene 3552); assay: BSK_KF3CT_IL1a: BioMAP Diversity Plus: KF3CT Assay for Interleukin-1 alpha (IL1a) Biomarker Activity (AID 2283070); details: actives raise or lower the signal; primary human keratinocytes with fibroblasts
Summary of the method: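 Readout is IL-1a level by ELISA, compared bidirectionally with DMSO as baseline. Cells: human keratinocytes co-cultured with foreskin fibroblasts, harvested 24 h post-dose.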

[12] = read-out: CD40, CD40 (gene 958); assay: BSK_LPS_CD40: BioMAP Diversity Plus: LPS Assay for CD40 Biomarker Activity (AID 2283076); details: actives raise or lower the signal; primary human HUVEC with PBMC
Summary of the method: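 CD40 signal, measured by ELISA, is fitted in both directions relative to DMSO vehicle. The system is an LPS-driven human vascular primary co-culture of endothelial cells and PBMC, sampled 24 h after compound addition.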

[13] = read-out: Tissue Factor, F3 (gene 2152); assay: BSK_LPS_TissueFactor: BioMAP Diversity Plus: LPS Assay for Tissue Factor Biomarker Activity (AID 2283084); details: actives raise or lower the signal; primary human HUVEC with PBMC
Summary of the method: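 In this co-culture system of umbilical vein endothelium with PBMC, stimulated with LPS, cell-surface CD142 is detected by ELISA at 24 h. Endpoint values derive from bidirectional fitting, DMSO serving as baseline.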

[14] = molecular target: human CYP4F12, CYP4F12 (gene 66002) (UniProt Q9HCS2); assay: NVS_ADME_hCYP4F12: NovaScreen (NVS) CYP450-related Enzyme Activity (ADME) Assay for human CYP4F12 (AID 2283111; active means hit-call score of the fitted dose curve at least 0.9, where 1 is the maximum)
[15] = molecular target: human Acid Phosphatase 1 (ACP1), ACP1 (gene 52) (UniProt P24666); assay: NVS_ENZ_hACP1: NovaScreen (NVS) Enzymatic Assay for human Acid Phosphatase 1 (ACP1) (AID 2283136; active means hit-call score of the fitted dose curve at least 0.9, where 1 is the maximum)
[16] = molecular target: human Beta-secretase (BACE), BACE1 (gene 23621) (UniProt P56817); assay: NVS_ENZ_hBACE: NovaScreen (NVS) Enzymatic Assay for human Beta-secretase (BACE) (AID 2283140; active means hit-call score of the fitted dose curve at least 0.9, where 1 is the maximum;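 further: hits are inhibitors that reduce fluorescent substrate signal versus DMSO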)
[17] = molecular target: human AKT serine/threonine Kinase 2 (AKT2), AKT2 (gene 208) (UniProt P31751); assay: NVS_ENZ_hAKT2: NovaScreen (NVS) Enzymatic Assay for human AKT serine/threonine Kinase 2 (AKT2) (AID 2283141; active means hit-call score of the fitted dose curve at least 0.9, where 1 is the maximum)
Summary of the method: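 Cell-free fluorescence/electrophoretic mobility shift readout of recombinant human AKT2 activity, 1 h after chemical dosing. Duplicate primary screen at 25 uM, then singleton concentration-response up to 50 uM; loss of signal versus DMSO baseline.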

[18] = molecular target: human Fibroblast Growth Factor Receptor 1 (FGFR1), FGFR1 (gene 2260) (UniProt P11362); assay: NVS_ENZ_hFGFR1: NovaScreen (NVS) Enzymatic Assay for human Fibroblast Growth Factor Receptor 1 (FGFR1) (AID 2283159; active means hit-call score of the fitted dose curve at least 0.9, where 1 is the maximum;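 further: hits lower the signal so potencies describe inhibitors of the kinase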)
[19] = molecular target: human Mitogen- and Stress-activated Protein Kinase-1 (Msk1), RPS6KA5 (gene 9252) (UniProt O75582); assay: NVS_ENZ_hMsk1: NovaScreen (NVS) Enzymatic Assay for human Mitogen- and Stress-activated Protein Kinase-1 (Msk1) (AID 2283187; active means hit-call score of the fitted dose curve at least 0.9, where 1 is the maximum)
Summary of the method: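 Chemicals first run in duplicate at 25 uM, with actives followed up in singleton concentration series to 50 uM maximum. Enzyme activity came from substrate/product mobility-shift separation with fluorescence detection after 1 h incubation of the recombinant protein.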

[20] = molecular target: Serine/threonine-protein phosphatase PP1-alpha catalytic subunit (Homo sapiens) (UniProt P62136); assay: NVS_ENZ_hPPP1CA: NovaScreen (NVS) Enzymatic Assay for human Protein Phosphatase 1 Aatalytic subunit Alpha (PPP1CA) (AID 2283200; active means hit-call score of the fitted dose curve at least 0.9, where 1 is the maximum)
Summary of the method: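 Chemicals were first screened in duplicate at 25 uM, and those passing threshold (e.g. 30% inhibition) were run as concentration series to 50 uM. Cell-free recombinant protein, 1.33 h read, fluorescent substrate/product mobility-shift detection, normalised to DMSO.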

[21] = molecular target: human Vascular Endothelial Growth Factor Receptor 3 (VEGFR3), FLT4 (gene 2324) (UniProt P35916); assay: NVS_ENZ_hVEGFR3: NovaScreen (NVS) Enzymatic Assay for human Vascular Endothelial Growth Factor Receptor 3 (VEGFR3) (AID 2283229; active means hit-call score of the fitted dose curve at least 0.9, where 1 is the maximum)
Summary of the method: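 Chemicals first run in duplicate at 25 uM, with actives re-tested in concentration series to a top of 50 uM. Recombinant VEGFR3 activity measured after 1 h via fluorescence with mobility-shift product separation; inhibition fitted relative to DMSO.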

[22] = molecular target: human Serotonin, 5-Hydroxytryptamine Receptor 7 (5HT7), HTR7 (gene 3363) (UniProt P34969); assay: NVS_GPCR_h5HT7: NovaScreen (NVS) G Protein-Coupled Receptor Assay for human Serotonin, 5-Hydroxytryptamine Receptor 7 (5HT7) (AID 2283255; active means hit-call score of the fitted dose curve at least 0.9, where 1 is the maximum;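 further: hits reduce specific radioligand binding relative to DMSO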)
Summary of the method: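 Filter-bound radioactivity counted after 1 h, with loss of specific radioligand binding fitted against DMSO. Membrane protein came from CHO cells expressing human 5HT7. Chemicals were tested first at 25 uM in duplicate, then in concentration series if active.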

[23] = molecular target: Retinoic acid receptor RXR-alpha (Homo sapiens) (UniProt P19793); assay: OT_NURR1_NURR1RXRa_1440: Odyssey Thera (OT) 24-hour HEK293T Protein Complementation Assay for Nurr1/retinoid X receptor (RXR) (AID 2283386; active means hit-call score of the fitted dose curve at least 0.9, where 1 is the maximum)
Summary of the method: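 Steps: fragment-tagged Nurr1 and RXRα expressed in HEK293T; compounds added; after 24 h, complemented reporter quantified by fluorescence intensity; signal increase over DMSO fitted as the single endpoint.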

[24] = read-out: Fatty acid synthase (Homo sapiens) (UniProt P49327); assay: LTEA_HepaRG_FASN: Life Technologies and Expression Analysis (LTEA) Assay for Fatty Acid Synthase (FASN) using HepaRG (AID 2283448); details: actives raise or lower the signal; mRNA level, 48 h;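 further: differentiated human HepaRG liver cells in serum-free induction medium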
Summary of the method: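 Cells were plated, cultured 48 h, switched to serum-free induction medium, then dosed in duplicate (max 100 uM, half-log dilutions, 0.5% DMSO) for 48 h. RNA was then isolated and FASN quantified by qRT-PCR.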

[25] = read-out: Peroxisomal acyl-coenzyme A oxidase 1 (ACOX1) gene, ACOX1 (gene 51); assay: LTEA_HepaRG_ACOX1: Life Technologies and Expression Analysis (LTEA) Assay for Peroxisomal acyl-coenzyme A oxidase 1 (ACOX1) gene using HepaRG (AID 2283467); details: actives raise or lower the signal; mRNA level, 48 h
Summary of the method: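 Human HepaRG hepatic cultures, 48 h treatment with test chemicals up to 100 uM. ACOX1 expression read by qRT-PCR relative to 0.5% DMSO vehicle.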

Measured: AC50

Sequence of UniProt P37231 (P37231 whole entry, looked up): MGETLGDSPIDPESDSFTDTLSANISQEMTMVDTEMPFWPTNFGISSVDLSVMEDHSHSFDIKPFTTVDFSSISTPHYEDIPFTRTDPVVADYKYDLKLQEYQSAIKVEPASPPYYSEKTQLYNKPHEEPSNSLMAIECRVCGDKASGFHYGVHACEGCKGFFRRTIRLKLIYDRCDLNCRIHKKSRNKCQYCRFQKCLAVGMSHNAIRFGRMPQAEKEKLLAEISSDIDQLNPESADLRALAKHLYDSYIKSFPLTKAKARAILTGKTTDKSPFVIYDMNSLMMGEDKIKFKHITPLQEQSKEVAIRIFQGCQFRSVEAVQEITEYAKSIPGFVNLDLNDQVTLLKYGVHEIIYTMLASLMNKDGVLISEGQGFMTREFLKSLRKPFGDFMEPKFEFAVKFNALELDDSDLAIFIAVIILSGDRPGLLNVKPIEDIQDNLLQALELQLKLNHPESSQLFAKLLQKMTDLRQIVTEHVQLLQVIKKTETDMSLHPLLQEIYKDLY
Sequence of UniProt P56817 (P56817 whole entry, looked up): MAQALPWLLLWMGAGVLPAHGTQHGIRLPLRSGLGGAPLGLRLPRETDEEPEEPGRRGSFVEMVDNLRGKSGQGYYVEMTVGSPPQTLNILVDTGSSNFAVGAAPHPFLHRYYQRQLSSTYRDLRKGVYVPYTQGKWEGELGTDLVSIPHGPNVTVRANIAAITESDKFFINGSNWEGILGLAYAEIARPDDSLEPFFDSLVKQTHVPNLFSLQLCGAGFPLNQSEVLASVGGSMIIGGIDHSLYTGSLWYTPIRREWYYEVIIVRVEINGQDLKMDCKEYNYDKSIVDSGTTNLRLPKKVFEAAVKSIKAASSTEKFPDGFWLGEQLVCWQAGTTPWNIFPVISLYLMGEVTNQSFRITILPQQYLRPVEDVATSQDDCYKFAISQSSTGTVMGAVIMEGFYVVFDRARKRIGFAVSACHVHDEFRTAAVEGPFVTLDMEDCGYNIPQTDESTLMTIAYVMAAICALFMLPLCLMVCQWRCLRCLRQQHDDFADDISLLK
Sequence of UniProt P31751 (P31751 whole entry, looked up): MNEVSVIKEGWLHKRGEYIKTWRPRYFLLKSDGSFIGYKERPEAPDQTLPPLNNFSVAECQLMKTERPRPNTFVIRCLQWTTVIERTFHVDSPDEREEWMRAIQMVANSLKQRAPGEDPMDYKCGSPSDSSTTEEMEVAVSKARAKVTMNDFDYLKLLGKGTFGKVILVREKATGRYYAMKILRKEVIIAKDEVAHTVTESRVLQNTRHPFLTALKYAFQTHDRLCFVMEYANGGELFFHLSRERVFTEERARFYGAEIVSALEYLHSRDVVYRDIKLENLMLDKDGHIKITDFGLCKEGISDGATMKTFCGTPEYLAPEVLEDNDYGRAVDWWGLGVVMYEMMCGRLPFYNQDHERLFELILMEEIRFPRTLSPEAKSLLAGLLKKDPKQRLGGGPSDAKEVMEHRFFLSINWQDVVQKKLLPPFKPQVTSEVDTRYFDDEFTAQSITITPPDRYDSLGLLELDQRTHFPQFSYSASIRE
Sequence of UniProt P49327 (P49327 whole entry, looked up): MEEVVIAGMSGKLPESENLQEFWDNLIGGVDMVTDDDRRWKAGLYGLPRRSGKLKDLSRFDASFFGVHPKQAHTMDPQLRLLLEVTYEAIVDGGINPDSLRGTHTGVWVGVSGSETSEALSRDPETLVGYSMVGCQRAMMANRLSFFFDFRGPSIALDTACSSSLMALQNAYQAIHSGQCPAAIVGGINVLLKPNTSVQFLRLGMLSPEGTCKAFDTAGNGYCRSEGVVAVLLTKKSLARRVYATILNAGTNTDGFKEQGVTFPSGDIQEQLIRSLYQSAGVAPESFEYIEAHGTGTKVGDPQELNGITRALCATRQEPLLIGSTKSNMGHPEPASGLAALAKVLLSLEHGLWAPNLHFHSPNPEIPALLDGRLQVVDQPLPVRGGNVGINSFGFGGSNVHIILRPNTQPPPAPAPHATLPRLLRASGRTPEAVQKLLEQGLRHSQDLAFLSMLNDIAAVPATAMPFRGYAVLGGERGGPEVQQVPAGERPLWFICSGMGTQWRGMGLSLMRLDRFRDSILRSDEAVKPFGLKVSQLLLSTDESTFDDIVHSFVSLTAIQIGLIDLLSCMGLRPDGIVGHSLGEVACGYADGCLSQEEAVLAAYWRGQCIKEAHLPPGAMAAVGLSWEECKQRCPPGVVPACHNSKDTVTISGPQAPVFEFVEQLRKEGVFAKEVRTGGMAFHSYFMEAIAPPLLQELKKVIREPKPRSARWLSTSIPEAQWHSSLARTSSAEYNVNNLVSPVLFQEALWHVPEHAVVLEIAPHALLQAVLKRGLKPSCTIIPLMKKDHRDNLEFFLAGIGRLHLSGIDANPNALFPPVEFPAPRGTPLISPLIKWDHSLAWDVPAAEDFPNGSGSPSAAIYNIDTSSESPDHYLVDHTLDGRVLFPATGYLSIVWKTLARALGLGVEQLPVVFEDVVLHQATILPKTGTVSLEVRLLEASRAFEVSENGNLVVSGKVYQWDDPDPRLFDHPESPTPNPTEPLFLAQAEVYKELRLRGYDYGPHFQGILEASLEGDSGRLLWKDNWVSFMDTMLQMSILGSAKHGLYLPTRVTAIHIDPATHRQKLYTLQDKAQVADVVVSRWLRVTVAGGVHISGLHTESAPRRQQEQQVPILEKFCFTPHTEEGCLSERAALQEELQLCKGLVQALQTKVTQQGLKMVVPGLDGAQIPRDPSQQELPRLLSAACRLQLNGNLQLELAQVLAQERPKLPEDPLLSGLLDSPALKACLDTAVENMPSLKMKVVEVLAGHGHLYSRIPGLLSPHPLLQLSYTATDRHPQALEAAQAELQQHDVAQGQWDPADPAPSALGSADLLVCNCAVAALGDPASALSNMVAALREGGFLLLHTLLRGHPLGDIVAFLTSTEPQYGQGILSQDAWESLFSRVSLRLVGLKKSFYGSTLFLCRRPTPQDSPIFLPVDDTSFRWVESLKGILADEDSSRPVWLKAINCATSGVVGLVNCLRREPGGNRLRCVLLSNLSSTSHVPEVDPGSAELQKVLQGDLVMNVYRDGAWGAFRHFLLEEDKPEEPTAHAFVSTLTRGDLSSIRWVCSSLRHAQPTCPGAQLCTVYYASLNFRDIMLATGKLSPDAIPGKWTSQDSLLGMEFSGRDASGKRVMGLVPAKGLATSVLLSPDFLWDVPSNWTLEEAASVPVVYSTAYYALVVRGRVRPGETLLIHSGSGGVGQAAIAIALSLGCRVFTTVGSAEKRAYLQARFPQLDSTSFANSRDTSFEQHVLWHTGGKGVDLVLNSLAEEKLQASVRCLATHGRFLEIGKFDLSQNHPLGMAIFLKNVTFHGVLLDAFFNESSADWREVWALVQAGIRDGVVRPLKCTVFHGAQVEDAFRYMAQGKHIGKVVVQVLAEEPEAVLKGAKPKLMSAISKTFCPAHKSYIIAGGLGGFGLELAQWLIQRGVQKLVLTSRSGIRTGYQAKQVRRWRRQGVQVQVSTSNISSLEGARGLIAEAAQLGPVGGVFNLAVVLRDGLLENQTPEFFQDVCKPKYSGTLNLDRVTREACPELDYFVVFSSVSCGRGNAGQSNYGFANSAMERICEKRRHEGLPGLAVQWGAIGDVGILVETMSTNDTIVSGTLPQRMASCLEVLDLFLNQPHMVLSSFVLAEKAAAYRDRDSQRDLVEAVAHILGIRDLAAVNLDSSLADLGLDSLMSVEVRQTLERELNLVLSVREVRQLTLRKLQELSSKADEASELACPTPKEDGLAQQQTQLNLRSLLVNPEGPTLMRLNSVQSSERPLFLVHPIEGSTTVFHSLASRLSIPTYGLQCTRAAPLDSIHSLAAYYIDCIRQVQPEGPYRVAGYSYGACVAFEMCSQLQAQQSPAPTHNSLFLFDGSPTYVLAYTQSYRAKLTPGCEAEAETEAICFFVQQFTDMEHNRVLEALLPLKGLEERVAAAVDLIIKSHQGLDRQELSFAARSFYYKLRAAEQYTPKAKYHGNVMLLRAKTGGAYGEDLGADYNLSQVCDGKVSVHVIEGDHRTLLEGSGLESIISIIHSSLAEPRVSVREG
Sequence of UniProt O75582 (O75582 whole entry, looked up): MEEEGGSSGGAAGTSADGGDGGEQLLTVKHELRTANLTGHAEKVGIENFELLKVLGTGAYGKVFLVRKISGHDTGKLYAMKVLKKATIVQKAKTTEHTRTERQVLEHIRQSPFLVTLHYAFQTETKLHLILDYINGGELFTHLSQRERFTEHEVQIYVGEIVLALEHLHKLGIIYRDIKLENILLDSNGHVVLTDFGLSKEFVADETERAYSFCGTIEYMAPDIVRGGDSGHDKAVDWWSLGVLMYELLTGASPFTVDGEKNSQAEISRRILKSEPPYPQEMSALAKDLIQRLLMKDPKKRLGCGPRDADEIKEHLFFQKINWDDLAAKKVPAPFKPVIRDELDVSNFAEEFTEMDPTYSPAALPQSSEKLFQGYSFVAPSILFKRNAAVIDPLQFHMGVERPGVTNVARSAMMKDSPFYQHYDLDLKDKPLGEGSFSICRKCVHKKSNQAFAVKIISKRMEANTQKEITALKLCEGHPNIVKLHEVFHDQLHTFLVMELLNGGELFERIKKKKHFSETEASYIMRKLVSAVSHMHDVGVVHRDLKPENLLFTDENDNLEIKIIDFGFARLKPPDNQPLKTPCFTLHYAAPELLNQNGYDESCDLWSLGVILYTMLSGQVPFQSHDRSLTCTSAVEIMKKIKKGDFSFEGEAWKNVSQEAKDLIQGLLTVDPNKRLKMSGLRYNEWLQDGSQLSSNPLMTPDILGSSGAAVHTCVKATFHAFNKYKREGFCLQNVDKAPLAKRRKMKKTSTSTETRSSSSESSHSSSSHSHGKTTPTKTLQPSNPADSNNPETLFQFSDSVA
Sequence of UniProt P24666 (P24666 whole entry, looked up): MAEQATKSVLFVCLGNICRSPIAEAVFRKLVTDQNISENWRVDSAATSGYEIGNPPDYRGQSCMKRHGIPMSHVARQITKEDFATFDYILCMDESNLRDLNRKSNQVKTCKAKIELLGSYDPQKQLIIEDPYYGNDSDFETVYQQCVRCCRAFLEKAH

O=S(=O)(O)C(F)(F)C(F)(F)C(F)(F)C(F)(F)C(F)(F)C(F)(F)C(F)(F)C(F)(F)F
active: [1] 33.4 µM and 32.8 µM | [3] 18 µM | [5] 10.4 µM | [6] 22.3 µM | [7] 12.5 µM | [8] 22.5 µM | [12] 29.8 µM | [14] 1.81 µM | [15] 19.5 µM | [16] 9.81 µM and 467 nM | [17] 38.6 µM | [18] 17.2 µM | [19] 41 µM | [21] 14.4 µM | [22] 17.3 µM | [24] 78.5 µM | [25] 13.2 µM
inactive: [2] | [4] | [9] | [10] | [11] | [13] | [20] | [23]
